Laboratory results as given in the supplement of paper PMC10126150.
Values marked as one replicate rest on one cluster of the flow cell; about a third of the high ones do not repeat.

test system: ATP; experiment: switch fluorescence ratio, 500 uM ATP over buffer (Cy3 cluster intensity, sum of 5 cycles each) (fold (ratio)); higher = stronger signal-on switching upon ATP binding; sequences stand for … in TCGTCGGCAGCGTCAGATGTGTATAAGAGACAGTTTTTTTTTTTTTTTTTTTTTTTTT…TC; conditions: aptamer strand: ATP DNA aptamer (quencher-CACCTGGGGGAGTATTGCGGAGGAAGG + anchor), 100 nM annealed; ATP concentration: 500 uM; one replicate
In short: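 Imaging in selection buffer was followed by imaging after 15 min with 500 uM ATP at 22 °C, for Cy3-labelled switching-strand clusters annealed to 100 nM quencher-labelled ATP aptamer on a modified Illumina MiSeq flow-cell. Five of these buffer/ATP cycles ran, separated by NaOH stripping and re-annealing. The fluorescence ratio per cluster is summed target-cycle over summed buffer-cycle Cy3 intensity, averaged per switch-domain sequence; clusters outside 100-1000 RFU were removed.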
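Also: ATP exposure 15 min at 22 °C before imaging.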

Sequence	switch fluorescence ratio
ATCGAGGGTA	0.952
ATCGATGATA	1.02
ATCGCACATT	1.11
ATCGCAGAGC	1.06
ATCGCAGGGG	1.14
ATCGCATGCT	1.1
ATCGCCAACT	0.982
ATCGCCGATT	0.989
ATCGCTAAGG	0.988
ATCGCTTTTC	1.15
ATCGGAGTCA	0.988
ATCGGCAGCA	1.04
ATCGGCCGTT	0.98
ATCGGGCAAA	0.979
ATCGGTAATA	1.19
ATCGGTCAAT	1.04
ATCGTAAAAT	1.03
ATCGTCATTT	1
ATCGTTACGG	1
ATCGTTGATA	0.978
ATCGTTTTCT	1.02
ATCTAAATGA	0.966
ATCTAACTAA	0.995
ATCTACCACC	1.26
ATCTACGGTC	1.01
ATCTAGGCCA	1

Sequence	switch fluorescence ratio
ATCTAGGCCC	1.02
ATCTATAAAG	1.01
ATCTATCGGG	0.972
ATCTATGAGC	1.02
ATCTATGTCT	1.02
ATCTCCCCGG	3.15
ATCTCGCCAT	1.07
ATCTGCAACC	3.28
ATCTGCACT	1.16
ATCTGGAAGT	0.99
ATCTGGCGT	0.999
ATCTGGGACA	1.01
ATCTGGGCTC	1.01
ATCTGGTTAT	1.01
ATCTGTAAA	0.992
ATCTTCTAGG	0.989
ATCTTGCTGG	0.996
ATCTTTCATT	0.978
ATCTTTGT	0.977
ATGAAATGT	0.951
ATGAACCGAA	1.02
ATGAACGGGT	0.973
ATGAACTTAC	1.33
ATGAAGAATA	1.05
ATGAAGGGCG	1.06
ATGAAGGTCC	0.984

Sequence	switch fluorescence ratio
ATGAAGGTTG	1.06
ATGAAGTCCA	1
ATGAATTGAG	0.984
ATGACAAGTA	1.08
ATGACATACT	1.32
ATGACCATCG	1.04
ATGACCTAGT	1.03
ATGACGAATT	1
ATGACGGACC	1.07
ATGACGGTA	1.02
ATGACTACGG	1.16
ATGAGAAATG	0.888
ATGAGAGGTG	1.17
ATGAGCGGG	1.03
ATGAGCTACT	1.06
ATGAGCTTCG	1.01
ATGAGGACGC	1.06
ATGAGGCCT	1.04
ATGAGTAAGA	1
ATGAGTAGTG	0.937
ATGAGTGGGC	1.03
ATGATAAAGT	0.968
ATGATCAGT	0.996
ATGATCGATC	0.971
ATGATCGCG	0.958
ATGATGAGCA	1.02

Sequence	switch fluorescence ratio
ATGATGCTTT	1.01
ATGCAAAGTT	0.939
ATGCAACTCT	0.974
ATGCACGCAT	1.01
ATGCACTGT	1.03
ATGCACTGTT	1.02
ATGCAGCCC	1.04
ATGCAGTACA	1.05
ATGCAGTGAA	1.01
ATGCAGTGAG	0.995
ATGCATCCGG	0.974
ATGCATCTTG	0.983
ATGCATGATG	0.98
ATGCATGCGC	1.06
ATGCCATGAA	1.01
ATGCCCACCG	1.04
ATGCCCAGAC	1.09
ATGCCGCATT	1
ATGCCTACGG	1.02
ATGCCTGGG	0.99
ATGCG	1.06
ATGCGACGGG	1.01
ATGCGCATTG	0.985
ATGCGCCGGG	0.973
ATGCGGCGCC	0.943
ATGCGGCTC	0.956

Sequence	switch fluorescence ratio
ATGCGGTGCT	0.932
ATGCGTAAT	1.06
ATGCGTACT	1.01
ATGCTAGACT	0.949
ATGCTAGTAT	0.976
ATGCTAGTGG	0.99
ATGCTCAAGG	1.03
ATGCTCAGGA	1.04
ATGCTCATGC	1
ATGCTCCTTC	1.04
ATGCTCTTGG	1.02
ATGCTGATTG	1
ATGCTTATAA	1.02
ATGGAAATCG	0.958
ATGGAACGAC	1.01
ATGGAAGTAT	1.04
ATGGAATACA	1.04
ATGGACGTGG	1.03
ATGGAGAGCG	0.991
ATGGAGGGAT	0.991
ATGGAGGGT	1.01
ATGGAGTGGT	1.04
ATGGATAGTT	0.963
ATGGCATA	1
ATGGCCTGTT	1.01
ATGGCTAGTT	0.97

Sequence	switch fluorescence ratio
ATGGCTCCAT	0.975
ATGGGACGTG	0.992
ATGGGATACA	1.01
ATGGGCGCGT	1.07
ATGGGCGGCT	0.986
ATGGGGACTG	1.1
ATGGGGGC	1.08
ATGGGGTTAG	0.979
ATGGGTAAGA	0.985
ATGGGTACCT	1.02
ATGGGTACTC	0.989
ATGGGTAGT	1.01
ATGGGTCCAT	1.02
ATGGGTCTGG	0.997
ATGGGTTTTA	1.03
ATGGTATTT	1.04
ATGGTCGCGA	0.981
ATGGTCGGCT	1.03
ATGGTGT	1.06
ATGGTGTTAG	1.02
ATGGTGTTGG	1.02
ATGGTTCGCA	0.974
ATGGTTGAAA	1.02
ATGGTTGTAT	1.01
ATGGTTTTCT	0.983
ATGTACGGT	1.04

Sequence	switch fluorescence ratio
ATGTACTGCA	1.04
ATGTACTTGT	1.01
ATGTATCGG	1.02
ATGTCATAA	0.996
ATGTCCAAAC	1.06
ATGTCCGAAC	1.06
ATGTCGAGTA	0.972
ATGTCGCTGG	0.964
ATGTCTATTC	1.05
ATGTCTGTGG	1.03
ATGTGAAAAC	1.01
ATGTGAATGC	1.07
ATGTGAGA	1
ATGTGAGACT	1.18
ATGTGAGGT	1.06
ATGTGATCGG	0.994
ATGTGCGCGT	1.01
ATGTGCTCCA	0.995
ATGTGGTC	0.99
ATGTGTCGGG	0.983
ATGTGTGGTA	0.979
ATGTTAATTT	0.967
ATGTTAGGAT	0.978
ATGTTCATCT	0.946
ATGTTCGGTG	0.968
ATGTTCTTC	0.979

Sequence	switch fluorescence ratio
ATGTTGGCGC	0.994
ATGTTGTGCA	1.05
ATTAAAAAGA	0.987
ATTAAAACGT	1.07
ATTAAACGCT	1.05
ATTAAACGTC	1.06
ATTAAAGAAC	1.03
ATTAACAGAG	1.01
ATTAACATCG	1.06
ATTAACCCTA	1.06
ATTAACCTTT	1.04
ATTAACGCAG	0.979
ATTAAGAACT	0.977
ATTAAGACAC	1.11
ATTAAGTCAA	0.978
ATTAATACGC	1.04
ATTAATCTCA	1.01
ATTAATTTA	1.04
ATTACCGA	1.03
